Source: PubChem BioAssay (NCI)
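In this assay, cells in 96-well plates receive the compound at five concentrations for 48 hours. Endpoints are linearly interpolated between the surrounding concentrations. The concentration for 50% growth inhibition is given as GI50. TGI marks complete inhibition of growth.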

Each compound was assayed on NCI-H322M lung (assay: growth of human tumour cells (NCI), 48 h).

Structure (SMILES)	GI50 [µM]	TGI
O=c1c2ccccc2c(=O)c2c1[nH]c1c(-c3ccccc3)c(-c3ccccc3)c(=O)c12	2.58	7.21 µM
O=c1oc2ccc([N+](=O)[O-])cc2c(Nc2ccc3c(c2)Oc2ccccc2O3)c1[N+](=O)[O-]	–	> 100 µM
COc1cc(NC(C)CCCN)c2nccc(C)c2c1 (stereo unspecified)	–	55.4 µM
C/C(N=NC(=S)N(C)C)=C1\C=CC=CN1O	< 0.1	> 100 µM
COc1ccc(-c2nn(-c3ccc(NC(=O)Nc4cc(C(F)(F)F)cc(C(F)(F)F)c4)cc3)cc2-c2ccncc2)cc1Cl	3.27	> 100 µM
CCC/C(Cl)=N\OC(=O)Nc1ccc(OC(F)(F)F)cc1	–	36.7 µM
N#CC1=C(N)N(c2ccccc2)C(c2ccccc2)C1(C#N)C#N (stereo unspecified)	–	39.4 µM
CC1=C(O)C(=O)C=C2C1=CC=C1[C@@]2(C)CC[C@@]2(C)[C@@H]3C[C@](C)(C(=O)O)CC[C@]3(C)CC[C@]12C	–	1.12 µM
Nc1nc(Cl)cc(NCC2(CO)CCCC2)n1	–	> 100 µM
Cc1ccc2c(c1)C(=O)C1(C2)Cc2cccc(C)c2C1=O (stereo unspecified)	–	> 100 µM
Cn1c2ccccc2c(=NNc2cccc(C(=O)O)c2)c2ccccc21	–	71.9 µM
CCOc1ccc(/C=C2/C(=O)N=C(NC(C)=O)N2C)cc1	–	> 100 µM
OCc1ccc(C2CC(c3ccco3)=NN2c2ccccc2)o1 (stereo unspecified)	–	> 100 µM
C[C@H](O)C(=O)N1CCC(CCn2c(Sc3cc4c(cc3Br)OCO4)nc3c(N)ncnc32)CC1	–	> 100 µM
Cc1ccc2[nH]c(O)c(N=Nc3ccc(S(N)(=O)=O)cc3)c2c1	16.7	> 25 µM
COc1ccc(CCN2COc3c([C@@H](C)CCC=C(C)C)ccc(C)c3C2)cc1OC	3.03	11.6 µM
C=C1C(=O)C=C[C@]2(C)CC[C@H]3C(=C)C(=O)O[C@@H]3[C@@H]12	–	40 µM
On1c(-c2ccccc2)nc2ccccc2c1=S	–	> 100 µM
O=C1O[C@H](c2ccc3c(c2)OCO3)[C@H]2CO[C@@H](c3ccc4c(c3)OCO4)[C@@H]12	–	> 100 µM
COc1ccc(CC2NCCc3cc(OC)c(OC)cc32)cc1Br (stereo unspecified)	–	> 100 µM
O=C(CN(c1ccccc1)c1ccccc1)n1nnc2ccccc21	–	> 100 µM
Nc1ccn(C2OC(CO)C(O)C2O)c(=O)c1 (stereo unspecified)	–	> 625 µM
Nc1ccc(S(=O)(=O)Nc2nccs2)cc1	–	> 100 µM
NC(CCC(=O)NC(CSCC1C(=O)Nc2ccccc21)C(=O)NCC(=O)O)C(=O)O (stereo unspecified)	–	34.5 µM
COc1ccc(C2COc3cc(O)c(O)cc3C2)cc1 (stereo unspecified)	–	157 µM

Structure (SMILES)	GI50 [µM]	TGI
Nc1ccc(S2(c3ccc(N)cc3)C=C(c3ccccc3)C(c3ccccc3)=C2)cc1	–	> 100 µM
CCn1c(SCc2ccc(C)cc2)nnc1-c1nn(-c2ccc(Cl)cc2Cl)c(-c2ccc(Cl)cc2)c1C	2.71	13 µM
COc1ccc(C(=O)COc2ccc(/C=C3\COc4ccc(OC)cc4C3=O)cc2)cc1	> 100	> 100 µM
CCOC(=O)NC(=O)c1cn(CCCOC(=O)CCCCCCCCCCC(=O)OCCCn2cc(C(=O)NC(=O)OCC)c(=O)[nH]c2=O)c(=O)[nH]c1=O	–	> 100 µM
C#C[C@]1(O)CC[C@H]2[C@@H]3CCC4=C/C(=N/OC(=O)c5cccc6c(=O)c7ccccc7[nH]c56)CC[C@@H]4[C@H]3CC[C@@]21C	–	> 100 µM
CC(C)C[C@H](NC(=O)/C=C/Cn1ccc2ccccc2c1=O)B(O)O	77.3	> 100 µM
CC(CO)(CO)NCCCCn1ccc2c1C(=O)c1c(c(O)c3ccccc3c1O)C2=O	8.79	21.8 µM
CC(=O)OCC1OC(n2c3c(cc(C#N)c2=S)CCCCC3)C(OC(C)=O)C(OC(C)=O)C1OC(C)=O (stereo unspecified)	–	> 100 µM
C=C([C@@]1(O)C[C@H]2[C@H](CCC2(OC)OC)[C@@H]2c3ccccc3O[C@@H]21)[Si](C)(C)C	–	> 100 µM
CCCSc1nc(COC(=O)NC)c(COC(=O)NC)n1C	–	> 100 µM
O=C1c2cccnc2-c2nccc3c2c1nc1cc(Br)ccc13	–	0.343 µM
COc1cc2c3c(c1OC)C1(C=CC(=O)C=C1)C[C@H]3N(C)CC2	–	> 100 µM
Nc1ccc(-c2nc3ccc(Cc4ccc5nc(-c6ccc(N)cc6)[nH]c5c4)cc3[nH]2)cc1	4.26	16.5 µM
CC(=O)NC1c2ccccc2C(C)(C)C12CCC1(CC2)OCCO1 (stereo unspecified)	–	> 100 µM
Nc1ccn(C2CCC(CO)O2)c(=O)n1 (stereo unspecified)	> 1000	> 1000 µM
C[N+]12CCCCC1C(CN1C(=O)Cc3c4ccccc4c(c4ccccc34)CC1=O)CCC2 (stereo unspecified)	–	> 100 µM
O=C1CCC(O)=C1N=Nc1ccccc1	–	> 100 µM
C[C@]12CC[C@@H]3c4cc(OCC(F)(F)F)c(O)cc4/C(=N/O)C[C@H]3[C@@H]1CC[C@@H]2O	0.0748	39.2 µM
COc1c(CCl)cc(-c2cc(=O)c3ccccc3s2)cc1CCl	–	> 100 µM
ClCC[N+]12CC[N+](CCCl)(CC1)C2	–	> 100 µM
Nc1ccc(C(=O)N2CCC[C@H]2CO)c(N)c1	–	> 100 µM
CCN1CCC(O)(/C=C/c2ccc(C)cc2C)C(C(=O)/C=C/c2ccc(C)cc2C)C1 (stereo unspecified)	–	10.8 µM
O=C(CCC1OCCO1)Nc1cc(NCc2ccccc2)ccc1OCc1ccccc1	–	> 100 µM
O=C(/C=C\c1ccc(NCc2ccc(C(=O)O)cc2)cc1)CCl	17.4	32.1 µM
N#Cc1c(Cl)cc(Cl)n2c1nc1ccccc12	–	46.6 µM

Structure (SMILES)	GI50 [µM]	TGI
O=C(O)C1C(Br)(c2ccccc2)C1(Br)c1ccccc1 (stereo unspecified)	–	> 100 µM
CC1=NNC(=O)C1C(CC(=O)c1c[nH]c2ccccc12)C(=O)O (stereo unspecified)	–	> 100 µM
CSc1ncnc2c1ncn2CCC#N	–	> 100 µM
CC(C)(C)c1cc(C(O)(C(F)(F)F)C(F)(F)F)c2c(c1)C(C(F)(F)F)(C(F)(F)F)OC(C(C)(C)C)N2 (stereo unspecified)	–	16.1 µM
C#Cc1c(I)n(C2OC(CO[Si](C)(C)C(C)(C)C)C3OC(C)(C)OC32)c(=O)[nH]c1=O (stereo unspecified)	30.4	97.9 µM
COc1ccc2cc(C(C)C(=O)N3CCOC3=O)ccc2c1 (stereo unspecified)	–	> 100 µM
O=C(O)/C=c1/c2ccccc2n2nc3ccccc3c12	–	72.6 µM
CC1=CC(C/C(C)=C/COc2ccc3ccc(=O)oc3c2)OC1=O (stereo unspecified)	–	> 100 µM
CC/C=C\C[C@H]1C/C=C2/C(=O)C=C[C@@H]2C/C=C\CCCC(=O)O1	2.08	5.87 µM
CC(=O)N[C@H]1CSSC[C@@H](C(N)=O)NC(=O)[C@H](C(C)C)NC(=O)[C@H](C)NC(=O)[C@H](Cc2cnc[nH]2)NC1=O	> 100	> 100 µM
Nc1nc(F)nc2c1ncn2C1OC(CO)C(O)C1O (stereo unspecified)	–	> 100 µM
O=C1Nc2ccc(F)cc2/C1=C/c1ccc[nH]1	19.5	> 25 µM
O=C(Nc1c(Cl)cc([N+](=O)[O-])cc1Cl)C(=O)C(C1OC(=O)c2ccccc21)[N+](=O)[O-] (stereo unspecified)	–	> 100 µM
CSC(C1c2ccccc2N(c2ccc(C)cc2)c2[nH]c(=O)n(C)c(=O)c21)S(=O)(=O)c1ccc(C)cc1 (stereo unspecified)	–	> 100 µM
C=C1CN2CC(=C)CN(C1)CS(=O)(=O)N1CC(=C)CN(CC(=C)C1)S(=O)(=O)N1CC(=C)CN(CC(=C)C1)S(=O)(=O)C2	–	> 100 µM
Cc1ncc(CCCN(C)C)cc1Nc1ncc2c(n1)-c1ccc(C(F)(F)F)cc1NC(=S)C2	2.5	18.8 µM
CC1=C[C@H]2c3c(c(O)c(O)c4oc(-c5ccccc5)cc(=O)c34)[C@H](c3cc(O)c(O)c4oc(-c5ccccc5)cc(=O)c34)[C@H]2C(C)(C)C1	1.56	10.5 µM
O=C(NCO)NCOCn1c(=O)n(CO)c(=O)n(CO)c1=O	–	> 100 µM
O=C1CSC(c2ccc(Cl)cc2Cl)N1c1ccc(F)cc1 (stereo unspecified)	17.5	32.9 µM
Clc1ccc(C=Nc2ccc3c(c2)Cc2ccccc2-3)c(Cl)c1	–	> 100 µM
O=S(=O)(Nc1cc(Sc2cccc3cccnc23)c(O)c2ccccc12)c1ccccc1	2.31	13.7 µM
CSc1sc2ccccc2[s+]1	–	> 100 µM
COc1ccc(N2C(=O)CSC2c2c[nH]c3ccccc23)cc1 (stereo unspecified)	–	> 100 µM
C=C1C(=O)OC2/C=C(\COC(C)=O)CCC(OC(C)=O)C3=CC(OC3=O)C12 (stereo unspecified)	–	18.3 µM
Oc1cccc(-c2nc3cc(F)ccc3s2)c1	–	94.7 µM

Structure (SMILES)	GI50 [µM]	TGI
COc1c(C(C)C)cc2c3c1OC(=O)[C@@]31CCCC(C)(C)C1CC2 (stereo partly specified)	–	> 100 µM
CN(C)c1ccc(C2SCC(=O)N2c2ccc(Oc3ccc(Cl)cc3)c(Cl)c2)cc1 (stereo unspecified)	–	84.4 µM
COc1ccc(C2OC(c3ccncc3)=NN2C)cc1OC (stereo unspecified)	–	> 100 µM
C=CCc1ccc(Oc2cc(CC=C)c3c(c2O)O[C@@H](CO)[C@H]3c2ccc(O)c(-c3cc(CC=C)ccc3O)c2)cc1	–	> 100 µM
CC1=C(C(=O)Nc2ccc(F)c(Cl)c2)C(c2cccc(O)c2)NC(=O)N1 (stereo unspecified)	33.3	> 100 µM
CCOC(=O)NC(Nc1ccc([N+](=O)[O-])cc1)(C(F)(F)F)C(F)(F)F	–	> 100 µM
Nc1ccc2cc3ccc(N)cc3nc2c1	0.633	6.77 µM [middle of 4 runs]
Clc1ccc2c(c1)-c1c3c(nn1-c1ccccc1)-c1ccccc1SC3O2 (stereo unspecified)	–	> 100 µM
Cc1ccc(S(=O)(=O)C(C#N)c2nc3ccccc3nc2-n2ccnc2)cc1 (stereo unspecified)	–	> 100 µM
C1CCC([PH+](C2CCCCC2)C2CCCCC2[PH+](C2CCCCC2)C2CCCCC2)CC1.O=C(C1[CH-]CCCC1)C1CCCC[N-]1.[Au] (stereo unspecified)	0.305	1.24 µM
O=C1CC2c3ccccc3CCC2c2ccccc21 (stereo unspecified)	–	> 100 µM
CN(C)C(=O)[C@H](O)[C@H](Cc1ccccc1)NC(=O)c1cc2cc(Cl)ccc2[nH]1	25.6	> 100 µM
CC(C)(C)OC(=O)NCCCNC1(c2cc3ccccc3s2)CCCCC1	–	27.5 µM
O=C(O)c1ccc(OCc2nc3cc(C(F)(F)F)ccc3nc2-c2ccccc2)cc1	–	> 100 µM
CC(C)(C[C@H]1CN(S(=O)(=O)c2cccc(C(F)(F)F)c2)c2cc(-c3cc(F)cc(OC(F)F)c3)ccc2O1)C(=O)O	12.2	25 µM
O=C1NC2OC(C(O)CO)C(O)C2O1 (stereo unspecified)	–	> 100 µM
CN(C)c1cc[c]([Sn]([c]2ccc(N(C)C)cc2)([c]2ccc(N(C)C)cc2)[c]2ccc(N(C)C)cc2)cc1	13.3	27.2 µM
C1C[OH+]CC[OH+]CC[OH+]CC[OH+]CC[OH+]1.[Cl-].[V]	35.6	> 100 µM
CC(=O)C(=CN1CCN(C(=O)c2ccco2)C1=S)C(C)=O	4.68	14.1 µM
CN1[C@@H]2C[C@@H](OC(=O)[C@H](CO)c3ccccc3)C[C@H]1[C@@H]1O[C@@H]12	–	> 100 µM
C=CC/C=C/C/C=C/CCCCCCCc1cccc(O)c1C(=O)O	–	> 100 µM
COc1ccc2c(cnc3c4cc(OC)c(OC)cc4ccc23)c1	–	> 100 µM
